85 compounds from PubChem BioAssay (NCI) can be followed below.

“And” between values parts separate entries of the source, which are not always exact repeats. Identical values can stand only once.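 Protocol summary: plate cells (96-well), add compound at 5 concentrations, incubate 48 h, interpolate endpoints linearly. GI50 marks 50% less growth. TGI is the concentration that stops growth completely.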 Square brackets hold non-standard residues; d marks the D form. Peptide text beside a SMILES is read from it. * marks the point of attachment. ξ: configuration not given here. ξNMe2Val = CC(C)C(C(=O)*)N(C)C; NMeV = CN[CH](C(=O)O)C(C)C; NHBn = c1ccc(CN*)cc1

The subject of the assay is NCI-H322M lung. Briefly: NCI tumour cell line growth inhibition, 48 h.
The compound `COC1/C=C(C)/C=C/C(C)/C=C/C(=O)OC(/C(C)=C/C=C(\C)CNC(=O)[C@H](CO)NC=O)C(C)/C=C/C=C/C(OC)CC/C=C(C)/C=C/C1` (stereo not given in full) returned a TGI above 1 µM. The same measure, in the same setting: the value for `Oc1ccc(C=Nc2ccccc2O)cc1` was above 100 µM; that for `CSc1ncnc2c1ncn2CCC(=O)O` was above 100 µM. In the case of `Cc1onc(-c2ccccc2)c1C(=O)N/N=C/c1cc(Cl)cc(Cl)c1O`, the GI50 was 1.95 µM and the TGI is 31.5 µM. In the case of `CN[C@H]1CN(c2ccc3c(=O)c(C(=O)O)cn(-c4nccs4)c3n2)C[C@@H]1OC`, the GI50 was 2.12 µM and the TGI worked out at 7.43 µM.

With `CCOC(=O)C1(C#N)OC(=O)c2cnccc21` (stereo not given), the TGI was above 100 µM. The same measure, in the same setting: for `COc1ccc(C(CC2(c3ccc(OC)cc3)SCCCS2)NC(C)=O)cc1` (stereo not given) the value was above 100 µM; for `N#Cc1ccc(C(O)C(F)(F)c2nc3ccccc3o2)cc1` (stereo not given), above 100 µM. Compound `OCC1C(OCc2ccccc2)C(OCc2ccccc2)C(OCc2ccccc2)CN1Cc1ccccc1` (stereo not given) returned a TGI of 70.5 µM.

`CC(=O)OC[C@H]1CN(OC(C)=O)C[C@@H](n2cc(C)c(=O)[nH]c2=O)O1` yielded a TGI above 100 µM. Take `O=c1c2c(nc3n1CCS3)[nH]c1cc([N+](=O)[O-])ccc12`: the GI50 was above 100 µM and the TGI was above 100 µM. With `COC(=O)c1c([N+](=O)[O-])ncn1[C@H]1OC[C@@H](OC(C)=O)[C@@H](OC(C)=O)[C@@H]1OC(C)=O`, the TGI is above 100 µM. Still for that read-out and setting: for `C[C@@H]1C[C@H]2[C@@H]3CCC4=CC(=O)C=C[C@]4(C)[C@@]3(F)[C@@H](O)C[C@]2(C)[C@@]1(O)C(=O)CO` the value was above 100 µM; for `Cc1nc([N+](=O)[O-])cn1-c1nc2ccccn2c1[N+](=O)[O-]`, above 100 µM. As for `NS(=O)(=O)OC[C@H]1C[C@@H](Nc2ccnc3cc(-c4cccc(SC(F)(F)F)c4)nn23)[C@H](O)[C@@H]1O`, the GI50 was 0.0248 µM and the TGI was 0.0718 µM.

In the case of `O=C(O)c1cc(-c2ccc3cc4c(cc3c2)OCO4)nc2ccccc12`, the TGI was above 100 µM. As to `COc1cc2cc(OC(C)=O)c3cc4c(cc3c2c(OC)c1OC)OCO4`, the TGI was above 100 µM. With `CC(C)C(NC(=O)C(C(C)C)N(C)C)C(=O)N(C)C(C(=O)N1CCCC1C(=O)N1CCCC1C(=O)NCc1ccccc1)C(C)C` (stereo not given) (ξNMe2Val-V[NMeV]PP-NHBn; configuration not given here), the TGI was above 100 µM. Consider `CSc1nc(-c2ccc(Cl)cc2)c(C#N)c(=O)n1C1OC(COC(C)=O)C(OC(C)=O)C(OC(C)=O)C1OC(C)=O` (stereo not given), for which the GI50 is 14 µM and > 100 µM; the TGI is above 100 µM. Compound `COc1ccccc1/C=C/c1ccnc2ccccc12` registered a TGI of 34.9 µM. Regarding `COC(=O)[C@]12CC3C=CC1N(C3)C(CBr)c1c2n(S(=O)(=O)c2ccccc2)c2ccccc12` (stereo not given in full), the TGI was above 100 µM. On the same count and under the same terms, the value for `N#C/C(=C\c1ccc(F)cc1)c1nc(-c2cc3ccccc3oc2=O)cs1` was above 100 µM; that for `NCCSSCc1ccccc1CSSCCN` was above 100 µM; that for `CCOC1CN=C(Nc2cccc3ccccc23)S1` (stereo not given) was above 10 µM.

Consider `O=C1N[C@@H]2[C@@H](O)[C@@H](O)[C@H](O)C[C@H]2c2cc3c(c(O)c21)OCCO3`, for which the GI50 was 0.126 µM and the TGI was found to be 0.661 µM. In the case of `O=C(C=P(c1ccccc1)(c1ccccc1)c1ccccc1)c1ccc(-c2cccs2)cc1`, the TGI was 17.2 µM.

In the case of `Cc1ccc(O)c(C(c2cccc(C(c3cc(C)ccc3O)c3cc(C)ccc3O)c2)c2cc(C)ccc2O)c1`, the TGI amounted to 3.1 µM. Take `COc1cc(/C=C2\C(=O)N(C(=O)Cc3ccccc3)N=C2C)cc(OC)c1OC`: the TGI is above 100 µM. The same measure, in the same setting: for `CC1CC(N)=C(C#N)C1(C#N)C#N` (stereo not given) the value was above 100 µM; for `Cc1ccc2c(c1)SC1=Nc3sc4cc(C)ccc4[n+]3CN12`, 52 µM. `OC1(C(Sc2cc(C(F)(F)F)cc(C(F)(F)F)c2)Sc2cc(C(F)(F)F)cc(C(F)(F)F)c2)C=CCCC1` (stereo not given) came in with a TGI of 19.6 µM.

`C=C(C)[C@H]1CC[C@@]2(C)C(C1)[C@H](C)CC[C@@H]2O` (stereo not given in full) gave a TGI above 100 µM. On the same count and under the same terms, the value for `CC(=O)OCCn1cnc2c(NCC=C(C)C)ncnc21` was above 100 µM. Regarding `CCOC(=O)Cc1c(C)c2cc(C(=O)c3ccccc3)c(O)cc2oc1=O`, the TGI is above 100 µM. As to `CNC(=O)c1c(C)oc2cc(Oc3ncnc4cc(OC)c(OC)cc34)ccc12`, the GI50 was above 100 µM and the TGI is above 100 µM. With `O=c1c2cc(-c3ccccc3)cnc2sn1-c1ccc(Br)cc1`, the TGI is above 100 µM. Take `COc1cc2c(cc1OC(C)C)[C@H](c1ccc(Cl)cc1)N(c1ccc(N(C)CC3CCC(N4CCN(C)C(=O)C4)CC3)cc1)C(=O)C2` (stereo not given in full): the GI50 is 2.94 µM and the TGI stood at 18.2 µM. Compound `Cc1ccc(CC(Cc2ccccc2C)C(=O)O)c(C(=O)O)c1` (stereo not given) came in with a TGI above 100 µM. Still for that read-out and setting: for `O=C1[C@H]2ON(c3ccccc3)C(c3ccc([N+](=O)[O-])cc3)[C@H]2C(=O)N1c1ccc(Cc2ccc(N3C(=O)[C@@H]4ON(c5ccccc5)C(c5ccc([N+](=O)[O-])cc5)[C@@H]4C3=O)cc2)cc1` (stereo not given in full) the value was above 100 µM; for `CC(=O)Oc1ccccc1`, above 100 µM. Take `Nc1nc(Cl)cc(NCC2(O)CCC2)n1`: the TGI is above 100 µM. The same measure, in the same setting: for `CC1=NN(c2nc(N)nc(CN3CCOCC3)n2)C(C)(C)C1` the value was above 100 µM; for `COc1ccc2c(c1)Cc1c(NCCN(C)C)ccc(C(=O)NCCCN(C)CCCNC(=O)c3ccc(NCCN(C)C)c4c3Nc3ccc(OC)cc3C4)c1N2`, 0.655 µM. Still for that read-out and setting: for `CC1(C)OC2C(CCP(=O)(O)O)OC(c3nc(C(N)=O)cs3)C2O1` (stereo not given) the value was above 100 µM; for `COc1ccc(S(=O)(=O)N2C(=O)CCC2C(=O)NC(N)=O)cc1` (stereo not given), above 100 µM; for `Cc1ccc(C)n1-c1ccccc1C1C=Cn2c(=O)nnc3c(OC(C)C)c(OC(C)C)c(O)c1c32` (stereo not given), above 100 µM. As for `FC1(F)[Se]C2C3CCC(C3)C2C1(F)F` (stereo not given), the TGI is above 100 µM. The same measure, in the same setting: for `COC(COC(N)=O)C1=C(N2CC2)C(=O)C(C)=C(N2CC2)C1=O` (stereo not given) the value was 1.28 µM. On the same count and under the same terms, for `COc1ccc(N=c2oc3ccccc3cc2C(N)=O)cc1` the value was above 100 µM; for `O=C(CSCC(=O)N/N=C/c1ccc2c(c1)OCO2)N/N=C/c1ccc2c(c1)OCO2`, above 100 µM; for `Cc1cc(S(=O)(=O)Nc2n[nH]c(-c3ccc(Cl)cc3)n2)c(SSc2cc(Cl)c(C)cc2S(=O)(=O)Nc2n[nH]c(-c3ccc(Cl)cc3)n2)cc1Cl`, 84.1 µM. Same read-out and setting: the value for `COC(=O)CCC(=O)c1ccc2c(c1)CCC2` was above 100 µM; that for `CNC(=O)C(C)NC(=O)C(Cc1ccccc1)NC(=O)c1ccccc1` (stereo not given) was above 100 µM. Consider `COc1cc(C(=O)NC2CCc3cc(OC)c(OC)c(OC)c3-c3ccc(OC)c(=O)cc32)cc(OC)c1OC` (stereo not given), for which the TGI came to 11.4 µM. On to `COc1ccc(C(=O)C#Cc2cn(C3CC(O)C(CO)O3)c(=O)[nH]c2=O)cc1` (stereo not given), for which the TGI is above 100 µM. On the same count and under the same terms, for `O=c1nc2n3c4c(cccc4nc-2c(=O)[nH]1)CCC3` the value was above 100 µM; for `Cc1c(C)c2ccc3oc4ccccc4c3c2oc1=O`, above 100 µM. Still for that read-out and setting: for `N#CC12C(=O)N3C(=NC(c4ccco4)NC3c3ccco3)C1(C#N)C(c1ccco1)NC1=C2CCCC1` (stereo not given) the value was above 100 µM. For the compound `O=C(COc1ccc(Cl)c(Cl)c1)Nc1ccc[n+](Cc2ccc(S(=O)(=O)F)c(Cl)c2)c1`, the TGI is above 100 µM. On the same count and under the same terms, the value for `CCCCc1ccc(N=C(N)N)cc1` was above 100 µM. `COc1ccccc1Nc1cc(O)c2c(=O)cc(-c3ccccc3)oc2c1`: the GI50 is 5.98 µM and the TGI was 27.4 µM. `CC[C@]12C=CCN3CC[C@@]4(c5cc(N=O)c(OC)cc5N(C)[C@H]4[C@@](O)(C(=O)OC)[C@@H]1OC(C)=O)[C@@H]32` had a TGI above 100 µM. Still for that read-out and setting: the value for `CO/C=C/C=C(\C#N)C(=O)OC` was above 100 µM; that for `Oc1c(Br)cc(/C=C/c2ccnc(/C=C/c3cc(Br)c(O)c(Br)c3)c2)cc1Br` was 83.9 µM; that for `O=C(O)c1ccccc1C(=O)NCC1S(=O)(=O)OCCOS1(=O)=O` was above 100 µM. On the same count and under the same terms, for `Cc1ccc2c(=O)cc(-c3sccc3C)[nH]c2n1` the value was above 100 µM; for `O=C(CCC(=O)Nc1ccc(Cl)c(Cl)c1)Cc1nc2ccccc2o1`, above 100 µM. With `Cc1nn(CNc2ccccc2C(F)(F)F)c(=S)n1/N=C/c1cccc2cccnc12`, the GI50 is above 100 µM and the TGI is above 100 µM. As to `CCOC(=O)C(C(=O)OCC)=C1SC(=Nc2ccccc2)C(=Nc2ccccc2)N1c1ccccc1`, the TGI is above 100 µM.

As for `NNC(=O)C(=O)N/N=C(\CCCC(=O)Nc1ccc(Cl)cc1)CC(=O)c1ccc(F)cc1`, the TGI is above 100 µM.

Take `Cc1[nH]c(=O)nc2nc3cc(Cl)cc(Cl)c3c(NC(C)(CO)CO)c12`: the TGI is above 100 µM.

The compound `Cc1c(-c2cnccn2)ssc1=S` had a TGI above 72 µM.

With `Clc1c(Cl)[n+](Cc2ccc3ccccc3c2)cn1Cc1ccc2ccccc2c1`, the GI50 is 1.87 µM and the TGI was 4.46 µM. For `COc1cc(/C=C2\CC3C4CC=C5C[C@@H](OC(C)=O)CC[C@]5(C)C4CC[C@]3(C)C2=O)ccc1OCCN1CCCCC1` (stereo not given in full), in that order: 7.61 µM and 20.4 µM.

On to `COc1ccc(C2(Cl)c3ccccc3N(c3ccccc3)c3ccccc32)cc1`, for which the GI50 is 0.294 µM and the TGI turned out to be 1.94 µM. In the same order, the values of `C=C(c1ccc(OC)c(/C=C/C(=O)c2ccc3c(c2)OCO3)c1)c1cc(OC)c(OC)c(OC)c1` are 4.73 µM and above 100 µM. `CCCCN1C(=O)C2Cc3c([nH]c4ccccc34)C(c3cccc(O)c3)N2C1=O` (stereo not given): the TGI worked out at 31.4 µM. Still for that read-out and setting: the value for `CC(C)(C)C1=CC(=C(P(=O)(O)O)P(=O)(O)O)C=C(C(C)(C)C)C1=O` was above 50 µM; that for `O=C1/C(=C\c2ccc(Cl)cc2)N=C(c2ccccc2)N1n1c(=O)cn[nH]c1=S` was above 100 µM; that for `CCOC(=O)c1cnc(N(C)C)nc1SC(=N)N` was above 100 µM. Same read-out and setting: the value for `COc1cccc(/C=N/n2c(Cc3ccccc3)n[nH]c2=O)c1` was above 100 µM; that for `CN(Cc1ccccc1)Cn1ccnc1` was above 100 µM.

For `C=CC(=O)Nc1ccc(NC(=O)C=C)c2c1C(=O)c1ccccc1C2=O`, the TGI is above 100 µM. On to `Cc1cnc2n1S(=O)(=O)c1cc(C(=O)Nc3cccc4nsnc34)c(Cl)cc1S2`, for which the GI50 is 13.4 µM and the TGI was found to be 26.6 µM. In turn, `O=C(O)CSc1n[nH]c(=O)[nH]c1=O` returned a TGI above 100 µM.
